Assay results published in article PMC11995724, “Antibiotic target discovery by integrated phenotypic and activity-based profiling of electrophilic fragments” (Cell chemical biology, 2025).
Screen size: about 3,200 compounds; about 110 (3.4%) showed an effect of 50% or more. Some of the results follow.

What follows are compounds tested on T1, V. cholerae SAD30. Conditions: relative growth, OD600, LB; 25 µM; inhibitor.
T1 construct: SAD30
Parameters: species or system S. aureus MSSA476 (TSB) or V. cholerae SAD30 (LB); 384-well bacterial growth screen at 25 uM, OD600 relative to DMSO control
In the case of `C=CC(=O)NCCC(=O)N1CCC(O)(c2c(F)cccc2F)CC1` [2-B11, N-{3-[4-(2,6-difluorophenyl)-4-hydroxypiperidin-1-yl]-3-oxopropyl}prop-2-enamide], the “% of control remaining” value is reported as 94.519%. For `Cc1c(C#N)c(NC(=O)CCl)n(Cc2cccs2)c1C` [4-C04, 2-chloro-N-{3-cyano-4,5-dimethyl-1-[(thiophen-2-yl)methyl]-1H-pyrrol-2-yl}acetamide], the “% of control remaining” value was 112.487%. In the case of `CCc1nc(C2CCCN2C(=O)CCl)no1` (stereo not drawn) [5-C08, 2-chloro-1-[2-(5-ethyl-1,2,4-oxadiazol-3-yl)pyrrolidin-1-yl]ethan-1-one], the “% of control remaining” value is reported as 101.04%. In the case of `CCn1nc(C)c(CNC(=O)CCl)c1C` [7-P10, 2-chloro-N-[(1-ethyl-3,5-dimethyl-1H-pyrazol-4-yl)methyl]acetamide], the “% of control remaining” value is reported as 85.1148%. `Cl.O=C(CCl)NCc1ccccc1CN1CCOCC1` [5-L06, 2-chloro-N-({2-[(morpholin-4-yl)methyl]phenyl}methyl)acetamide hydrochloride] was tested, and the “% of control remaining” value was 100.704%. With `N#CC(=Cc1cccc2ccccc12)C(=O)Nc1ccccc1Cl` [8-K11, N-(2-chlorophenyl)-2-cyano-3-(naphthalen-1-yl)prop-2-enamide] the “% of control remaining” value was 71.9918%. `Cc1cc(NC(=O)CCl)n(-c2ccccc2)n1` [4-G05, 2-chloro-N-(3-methyl-1-phenyl-1H-pyrazol-5-yl)acetamide] was tested, and the “% of control remaining” value was 102.825%. With `CN1C(=C(C#N)C(=O)CCl)Sc2ccccc21` [10-G08, 4-chloro-2-(3-methyl-2,3-dihydro-1,3-benzothiazol-2-ylidene)-3-oxobutanenitrile] the “% of control remaining” value was 91.954%. With `O=C(CCl)Nc1ccc(C(=O)O)cc1[N+](=O)[O-]` [4-C21, 4-(2-chloroacetamido)-3-nitrobenzoic acid] the “% of control remaining” value was 106.103%. For `COCCNC(=O)C(C#N)=Cc1cccc2ccccc12` [8-L12, 2-cyano-N-(2-methoxyethyl)-3-(naphthalen-1-yl)prop-2-enamide], the “% of control remaining” value was 67.913%. In the case of `C=CC(=O)N1CCOC(c2ccccc2)C1` (stereo not drawn) [2-I07, 1-(2-phenylmorpholin-4-yl)prop-2-en-1-one], the “% of control remaining” value is reported as 92.203%. For `CC(Cl)C(=O)N(Cc1ccco1)C1CCN(C)CC1` (stereo not drawn) [7-L17, 2-chloro-N-[(furan-2-yl)methyl]-N-(1-methylpiperidin-4-yl)propanamide], the “% of control remaining” value was 81.0177%. With `Cc1c(NC(=O)CCl)c(=O)n(-c2ccccc2)n1C` [5-G17, 2-chloro-N-(1,5-dimethyl-3-oxo-2-phenyl-2,3-dihydro-1H-pyrazol-4-yl)acetamide] the “% of control remaining” value was 99.8634%. For `C=CC(=O)NC1(c2nc(C)no2)CC1` [3-L09, N-[1-(3-methyl-1,2,4-oxadiazol-5-yl)cyclopropyl]prop-2-enamide], the “% of control remaining” value was 92.2661%. With `C=CC(=O)Nc1ccc2ccn(CCN(C)C)c2c1` [1-L21, N-{1-[2-(dimethylamino)ethyl]-1H-indol-6-yl}prop-2-enamide] the “% of control remaining” value was 90.583%. In the case of `C=CC(=O)N1CCOC(Cn2nc(C)nc2C)C1` (stereo not drawn) [1-B09, 1-{2-[(3,5-dimethyl-1H-1,2,4-triazol-1-yl)methyl]morpholin-4-yl}prop-2-en-1-one], the “% of control remaining” value is reported as 86.2481%. For `CC(Cl)C(=O)Nc1ccc(Cc2nnc3ncccn23)cc1` (stereo not drawn) [7-O22, 2-chloro-N-[4-({[1,2,4]triazolo[4,3-a]pyrimidin-3-yl}methyl)phenyl]propanamide], the “% of control remaining” value was 91.0623%. `Cc1ccccc1NC(=O)C(C#N)=Cc1cc(C)n(C2CC2)c1C` [8-A16, 2-cyano-3-(1-cyclopropyl-2,5-dimethyl-1H-pyrrol-3-yl)-N-(2-methylphenyl)prop-2-enamide] was tested, and the “% of control remaining” value was 55.4045%. `C=CC(=O)NC(C)C1(S(C)(=O)=O)CC1` (stereo not drawn) [2-P05, N-[1-(1-methanesulfonylcyclopropyl)ethyl]prop-2-enamide] was tested, and the “% of control remaining” value was 100.232%. In the case of `C=CC(=O)N1CCC(C(=O)Nc2ccc(CC)cc2)CC1` [3-J12, N-(4-ethylphenyl)-1-(prop-2-enoyl)piperidine-4-carboxamide], the “% of control remaining” value is reported as 87.3259%. With `CC(Cl)C(=O)N1CCC(NS(=O)(=O)c2cccs2)CC1` (stereo not drawn) [7-L07, N-[1-(2-chloropropanoyl)piperidin-4-yl]thiophene-2-sulfonamide] the “% of control remaining” value was 81.1498%. With `C=CC(=O)N1CCOC(c2cnn(C)c2)C1` (stereo not drawn) [3-K11, 1-[2-(1-methyl-1H-pyrazol-4-yl)morpholin-4-yl]prop-2-en-1-one] the “% of control remaining” value was 91.3839%. With `Cc1ccc(C=C(C#N)C(=O)Nc2nccs2)o1` [9-P10, 2-cyano-3-(5-methylfuran-2-yl)-N-(1,3-thiazol-2-yl)prop-2-enamide] the “% of control remaining” value was 82.053%. In the case of `Cc1ccc(F)c(S(=O)(=O)NCCNC(=O)CCl)c1` [7-P12, 2-chloro-N-[2-(2-fluoro-5-methylbenzenesulfonamido)ethyl]acetamide], the “% of control remaining” value is reported as 58.8138%. For `C=CC(=O)NC1CCS(=O)(=O)c2ccc(F)cc21` (stereo not drawn) [2-J19, N-(6-fluoro-1,1-dioxo-3,4-dihydro-2H-1lambda6-benzothiopyran-4-yl)prop-2-enamide], the “% of control remaining” value was 93.5926%. `C=CC(=O)NCCNS(=O)(=O)c1cc(C)sc1C` [3-C21, N-[2-(2,5-dimethylthiophene-3-sulfonamido)ethyl]prop-2-enamide] was tested, and the “% of control remaining” value was 110.969%. `Cc1cccc(NC(=O)c2ccccc2NC(=O)CCl)c1` [4-C10, 2-(2-chloroacetamido)-N-(3-methylphenyl)benzamide] was tested, and the “% of control remaining” value was 97.3043%. In the case of `N#CC(=Cc1ccc(OC(F)F)cc1)C(=O)Nc1ccccc1` [9-G15, 2-cyano-3-[4-(difluoromethoxy)phenyl]-N-phenylprop-2-enamide], the “% of control remaining” value is reported as 88.9871%. `Cc1cc(C(=O)CCl)c(C)n1-c1ccc(C(F)(F)F)cc1` [10-J14, 2-chloro-1-{2,5-dimethyl-1-[4-(trifluoromethyl)phenyl]-1H-pyrrol-3-yl}ethan-1-one] was tested, and the “% of control remaining” value was 98.4999%. `N#CC(=Cc1c(F)c(F)c(F)c(F)c1F)C(=O)NC1CCCCC1` [8-O15, 2-cyano-N-cyclohexyl-3-(2,3,4,5,6-pentafluorophenyl)prop-2-enamide] was tested, and the “% of control remaining” value was 75.6628%. For `Cc1cc(Cl)ccc1CN1CCN(C(=O)C(C)Cl)CC1` (stereo not drawn) [5-B13, 2-chloro-1-{4-[(4-chloro-2-methylphenyl)methyl]piperazin-1-yl}propan-1-one], the “% of control remaining” value was 62.2045%. In the case of `C=CC(=O)N(Cc1nccc2c1CCCC2)C1CCCC(OC)C1` (stereo not drawn) [1-F11, N-(3-methoxycyclohexyl)-N-[(5,6,7,8-tetrahydroisoquinolin-1-yl)methyl]prop-2-enamide], the “% of control remaining” value is reported as 81.3154%. With `C=CC(=O)N1CCC(CCO)c2ccccc21` (stereo not drawn) [3-O03, 1-[4-(2-hydroxyethyl)-1,2,3,4-tetrahydroquinolin-1-yl]prop-2-en-1-one] the “% of control remaining” value was 111.145%. `N#CC(=Cc1ccc(C(F)(F)F)cc1)C(=O)Nc1ccccc1` [9-I04, 2-cyano-N-phenyl-3-[4-(trifluoromethyl)phenyl]prop-2-enamide] was tested, and the “% of control remaining” value was 86.4038%. `CC(Cl)C(=O)Nc1ccccc1OC(F)F` (stereo not drawn) [6-J08, 2-chloro-N-[2-(difluoromethoxy)phenyl]propanamide] was tested, and the “% of control remaining” value was 85.392%. In the case of `C=CC(=O)Nc1ccc(C)cc1S(=O)(=O)N1CCOCC1` [1-O13, N-[4-methyl-2-(morpholine-4-sulfonyl)phenyl]prop-2-enamide], the “% of control remaining” value is reported as 87.2945%. For `CC(Cl)C(=O)Nc1ccc(Cl)c(S(=O)(=O)N(C)C)c1` (stereo not drawn) [5-G21, 2-chloro-N-[4-chloro-3-(dimethylsulfamoyl)phenyl]propanamide], the “% of control remaining” value was 96.6691%. In the case of `COc1ccc(CNC(=O)C(C)Cl)cc1OC` (stereo not drawn) [6-P10, 2-chloro-N-[(3,4-dimethoxyphenyl)methyl]propanamide], the “% of control remaining” value is reported as 100.104%. For `COc1ccc(CN(C)C(=O)CCl)cc1` [6-M15, 2-chloro-N-[(4-methoxyphenyl)methyl]-N-methylacetamide], the “% of control remaining” value was 90.0938%. For `C=CC(=O)Nc1sc2c(c1C(=O)c1ccc(C)cc1)CCOC2` [1-J22, N-[3-(4-methylbenzoyl)-4H,5H,7H-thieno[2,3-c]pyran-2-yl]prop-2-enamide], the “% of control remaining” value was 129.539%. For `O=C(CCl)Nc1ccccc1C(=O)Nc1ccc(Cl)cc1` [4-G10, 2-(2-chloroacetamido)-N-(4-chlorophenyl)benzamide], the “% of control remaining” value was 90.0582%. With `Cc1cc(C(=O)CCl)c(C)n1Cc1cccs1` [10-D03, 2-chloro-1-{2,5-dimethyl-1-[(thiophen-2-yl)methyl]-1H-pyrrol-3-yl}ethan-1-one] the “% of control remaining” value was 108.319%. For `CN1C(=O)Cc2cc(C(=O)CCl)ccc21` [10-G07, 5-(2-chloroacetyl)-1-methyl-2,3-dihydro-1H-indol-2-one], the “% of control remaining” value was 54.3931%. In the case of `N#CC(=Cc1ccc(Cl)cc1)C(=O)Nc1ccccn1` [9-H16, 3-(4-chlorophenyl)-2-cyano-N-(pyridin-2-yl)prop-2-enamide], the “% of control remaining” value is reported as 87.3555%. For `C=CC(=O)NCc1nc(-c2ccccc2)oc1C` [3-C05, N-[(5-methyl-2-phenyl-1,3-oxazol-4-yl)methyl]prop-2-enamide], the “% of control remaining” value was 106.734%.
